Assay results reported in the supplement of paper PMC10126150.
Values marked as one replicate rest on one cluster of the flow cell; about a third of the high ones do not repeat.

System: ATP
Assay: switch fluorescence ratio, 500 uM ATP over buffer (Cy3 cluster intensity, sum of 5 cycles each) (fold (ratio)); higher = stronger signal-on switching upon ATP binding; sequences stand for … in TCGTCGGCAGCGTCAGATGTGTATAAGAGACAGTTTTTTTTTTTTTTTTTTTTTTTTT…TC
Conditions: aptamer strand: ATP DNA aptamer (quencher-CACCTGGGGGAGTATTGCGGAGGAAGG + anchor), 100 nM annealed; ATP concentration: 500 uM; one replicate
Outline: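 Imaging in selection buffer was followed by imaging after 15 min with 500 uM ATP at 22 °C, for Cy3-labelled switching-strand clusters annealed to 100 nM quencher-labelled ATP aptamer on a modified Illumina MiSeq flow-cell. Five of these buffer/ATP cycles ran, separated by NaOH stripping and re-annealing. The fluorescence ratio per cluster is summed target-cycle over summed buffer-cycle Cy3 intensity, averaged per switch-domain sequence; clusters outside 100-1000 RFU were removed.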
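Also: ATP exposure 15 min at 22 °C before imaging.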

Row | Sequence | switch fluorescence ratio
1 | CTGGGTATAC | 1.32
2 | ATTTCGTGTT | 0.999
3 | TGCGGGCCGG | 1.04
4 | CGCATGAGTC | 1.22
5 | AGTAGCGAAT | 1.08
6 | AAAGCATGTG | 1.01
7 | AGAAGCATTA | 1.06
8 | GATGTATTTG | 1.01
9 | TAGGCAATAA | 3.34
10 | AAATTTAGGG | 0.984
11 | ACCTACGGGG | 1.21
12 | GTTAATCGGC | 0.951
13 | CGACAGGCGC | 1.06
14 | CGGCGGGCCC | 0.987
15 | GCAGATGCTT | 1.02
16 | CTGAAACATT | 1.05
17 | ACAGTCAAAC | 1.07
18 | GTTAAGTAAG | 1.18
19 | TTACGCCAGG | 1.54
20 | ATGGTTGGAT | 0.979
21 | CGCTAAAGGC | 1.15
22 | GCCTTTTCAG | 0.963
23 | CGCTGCTGGG | 1.04
24 | CATTGGAACA | 0.994
25 | CTGTCTGAGG | 1.04

Row | Sequence | switch fluorescence ratio
26 | GTAGTAAAGA | 1.2
27 | GTCGACGTGG | 1.01
28 | GTTATAGTCA | 0.962
29 | AAGTTGGTGC | 0.997
30 | GCGCGGTTAG | 0.998
31 | TAGGTCTTG | 0.973
32 | GACCCGGGAT | 1.05
33 | ATTGACAGCG | 0.938
34 | ACAATTAGTT | 0.988
35 | TAGTTGACGG | 0.91
36 | CGTCATAGGA | 0.998
37 | TTATTATGT | 1.01
38 | TCTGCGAGC | 1.04
39 | GGGTTTCTGC | 1.02
40 | TGTGATGCAT | 1.01
41 | GATATCTTCA | 1.04
42 | AACTTGTCGC | 1.06
43 | CGCAGTTAAT | 1.2
44 | GCCACGCCGC | 1.14
45 | GATACTGGT | 1.01
46 | GCATTATTTT | 1.02
47 | ATCTACTCGC | 1.11
48 | CTTTTGGGTC | 0.98
49 | ATTATTCGCA | 1.01
50 | TTACGCGTGG | 1.06

Row | Sequence | switch fluorescence ratio
51 | GCGGACAGAT | 1.02
52 | ATGGTGCTTC | 0.952
53 | TTTACAGGCG | 1.01
54 | CTAATGGTAC | 1.21
55 | GACGCCCAAA | 1.33
56 | ACAACAGATT | 0.986
57 | AGGACTACGT | 0.995
58 | GACTACATCA | 1.06
59 | CTAAGCCGTC | 0.999
60 | AAAGCCATAT | 1.06
61 | TCCTTCATCT | 1.24
62 | AGATATCTAT | 0.991
63 | GAGAGAGTC | 0.924
64 | TGTGGTCGG | 0.993
65 | CCATGACGGG | 1.01
66 | AACATCCTTT | 1.03
67 | CTTGGAAGTG | 0.998
68 | TCGTGTGCCC | 0.971
69 | CTGACACTAT | 1.21
70 | TACTGAGTGT | 1.04
71 | ATGGCCGCAA | 4.76
72 | AGCGAGCGCT | 0.976
73 | CCCCAGCTCG | 1.06
74 | CCCCCTTATT | 0.961
75 | CTTAGGTCAT | 0.996

Row | Sequence | switch fluorescence ratio
76 | AAAGAATATA | 0.964
77 | GCCGACTTGC | 1.08
78 | CTTGTTTAAA | 1.01
79 | CTCACGCGTG | 0.99
80 | CAGGCTTTGG | 0.991
81 | TCAGGCACTC | 1.01
82 | ACGTGATACG | 1.08
83 | CAGCTGCATA | 1.86
84 | GCATCCAATT | 1.03
85 | GCCCCTTGTC | 1.09
86 | TTGACAATTA | 1.26
87 | ATAGGCAGC | 1.02
88 | CGCCGCGCTT | 1.33
89 | CGGTGTTGCG | 0.979
90 | GACCTCACTC | 1.38
91 | ATATCCGTGC | 1.11
92 | TCATATTGG | 1.02
93 | ATTCCTAACG | 1.06
94 | TGCCGAGCGG | 1.02
95 | AAGATCCGTT | 0.923
96 | CGTATCCCCG | 1.08
97 | TTTATCGTTA | 1.04
98 | ACGGGGTGCT | 1.03
99 | TGCGGGTTTA | 1.04
100 | CGCGGGGTCA | 1.04

Row | Sequence | switch fluorescence ratio
101 | ATGGAGTCCA | 0.983
102 | CTCTGCGAAT | 4.21
103 | AACCTGTGTG | 1.03
104 | GTCAATAGGG | 1.01
105 | AACTCGAAAA | 1.12
106 | AATAAGGCGA | 0.981
107 | TGTGTTCCTA | 0.969
108 | CTAAGTAGCT | 1
109 | AAGGCCAAGT | 1.04
110 | ATCCCCGTCC | 1.25
111 | AACGAAACCC | 1.1
112 | GGTGTAGCCC | 0.992
113 | AAGAGCGATG | 1.06
114 | TGTATGCATC | 0.975
115 | AGGAGTCTAA | 1.01
116 | TCCAAAAGCT | 1.31
117 | GGACTGGTAG | 0.99
118 | TTCATTCACA | 1.03
119 | TTATTCTCCC | 1
120 | TAAGAATTGT | 1.01
121 | TGCTACATCT | 1.04
122 | GCTGAGGCAC | 0.99
123 | GGGGGCCCTA | 0.976
124 | CTTCCACAGA | 1.24
125 | CAAGCTGCTG | 0.957

Row | Sequence | switch fluorescence ratio
126 | TTTCCTGAAG | 1.07
127 | GGCAGAGAGG | 0.976
128 | TATTAGCGCG | 1.04
129 | CTTCGTCCAT | 1.29
130 | GGTCGTAGCT | 0.959
131 | AGGTTGGAAA | 0.961
132 | TAAGAAAGAT | 1.02
133 | GTGTGTAATG | 0.964
134 | TCGATGACA | 1.04
135 | GGGACCGAAA | 1.06
136 | CAATGGGTTT | 0.996
137 | TCGTGATAGC | 1.23
138 | CCAGGTACTA | 1.06
139 | AATGCAGAGC | 0.946
140 | CTTGCCACTT | 0.956
141 | GAGTGAAGTT | 0.97
142 | TCCTCTGTA | 1.19
143 | GAGTCGCCA | 1.08
144 | GTCTACATGT | 1.02
145 | CATTGGGCGT | 0.974
146 | TTTCGTGTCT | 0.959
147 | TATCGCGTTT | 1.09
148 | TTGTTCACTA | 1.03
149 | GTTCGTATTA | 1.01
150 | CATATAAAAG | 0.994

Row | Sequence | switch fluorescence ratio
151 | TAATGCCCTG | 1.01
152 | ATGCACTACA | 1.06
153 | GGTATACAAC | 1.02
154 | CGGCCCGAAT | 1.01
155 | GACTTCAGGG | 1.03
156 | ATGGCTGGCC | 1.04
157 | GGTCCGGAGT | 1.07
158 | TAGAGACAGG | 0.95
159 | ATACGAGCAA | 3.28
160 | AGAGTCCAAT | 1
161 | GTTATCCAGC | 1.01
162 | AGTATCAACG | 0.994
163 | TGAGTCGTTT | 0.967
164 | TCTTCATTAC | 1.29
165 | AGGGTTTCGT | 0.991
166 | CTTTTATAGA | 1.01
167 | TAAACGATGT | 1.01
168 | ATGTTCCGTT | 1.01
169 | AGTCAAATAG | 0.976
170 | ACCCTAAAGA | 1.01
171 | GCCACAAGTG | 1.1
172 | TTTTTTGG | 0.975
173 | TCGCGAGCTC | 1.31
174 | GACTCCCACT | 1.71
175 | AGAGGCTTGT | 1

Row | Sequence | switch fluorescence ratio
176 | TAGCGACGTC | 0.979
177 | AGACAATCGC | 1.07
178 | TGTATTAAGA | 1.02
179 | TCTGTTTTG | 1.01
180 | GATTTGTAAC | 1.02
181 | TCGGAAGTGC | 1.21
182 | CCGGTCACAT | 1.15
183 | CTTAGTATGA | 1.01
184 | GAGCGGGTAT | 0.979
185 | CTCGGTAGGA | 0.945
186 | AGTTTCGCCC | 1.02
187 | CGGAAAAGGC | 1.01
188 | CCGAGGTGAG | 1.09
189 | CAGTAAAGCT | 1.11
190 | AACTTTTAGA | 1
191 | TGACAAATTT | 0.987
192 | TGCTTTATCG | 1.04
193 | GAGGCCGGTG | 1
194 | ATAAGAAGCA | 0.944
195 | TGTCATGCGT | 0.934
196 | ACGCACCTC | 1.64
197 | GGCGCATGAA | 1.03
198 | CAGAATCTTC | 0.993
199 | TATTTGTTTC | 1.02
200 | ATTCGTGTAC | 1.27
